Structures are written as SMILES. Where “and” joins values, the source holds several entries; their conditions need not be identical. Equal entries are not always repeated.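 Step 1: Grow cells in 96-well plates. Step 2: Expose to compound for 48 hours at 5 concentrations. Step 3: Interpolate endpoints linearly; if unreached, use highest concentration. GI50: concentration for 50% inhibition of growth.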 Calls of active or inactive are those of the source. Cut-off read from the data, not from the text of the source: active = GI50 up to about 1.1 µM and inactive = higher.

This experiment relates to NCI-H322M. Nature of the experiment: NCI anticancer screen, dose series, 48 h.
With `O=C1c2ccccc2-c2c1c1ccccc1c(=O)n2CCO`, the GI50 was inactive: 18.9 µM.
To `N#CC1=C2SCCN2C(=O)C(C#N)C12CCCCC2` (stereo unspecified) belongs inactive: > 100 µM; to `C1=C(c2ccccc2)NC2=N[C@H]3CCCC[C@@H]3N2C1c1ccccc1` (stereo partly specified), inactive: 12 µM; to `Clc1ccc(C2SCc3nc4ccccc4n32)cc1` (stereo unspecified), inactive: 32.5 µM.
For the molecule `CC1(C)CC(=O)C(C(=O)Nc2cccs2)=C(O)C1`, the GI50 is inactive: 57.3 µM.
To `O=C(NCCC1CN(C(=O)OCc2ccccc2)c2ccccc21)OCc1ccccc1` (stereo unspecified) belongs inactive: > 100 µM; to `CN1CCN(Cc2nc3c(s2)CCc2sccc2-3)CC1`, inactive: > 100 µM; to `CNC(=O)CNC(=O)C(Cc1ccc(NC(=O)CCCCC(C)=O)cc1)NC(=O)C(CCC(=O)OCc1ccccc1)NC(=O)OC(C)(C)C` (stereo unspecified), inactive: > 100 µM.
In the case of `COc1ccc(/C=C2\NC(=S)N(/C=C3\C(=O)Oc4ccccc4C3=O)C2=O)cc1OC` it was inactive: > 100 µM.
In the case of `COc1cc2c(cc1OC)C1CN3CCCC3C(O)C1c1cc(OC)c(OC)cc1-2` (stereo unspecified) it was inactive: > 100 µM; in that of `C=C1CCOC2(C(O)C(C)(O)CO)NC(=O)C1(O)NC2=O` (stereo unspecified), inactive: > 100 µM.
Consider `O=[N+]([O-])/C(C(Cl)=C(Cl)Cl)=C(\N1CCCCC1)n1cncn1`, for which the GI50 is inactive: 16.9 µM.
`COc1ccc(/C=N/NC(=O)CSc2nc(-c3ccccc3)c(-c3ccccc3)[nH]2)cc1OC`: the GI50 is inactive: 32.2 µM.
In the case of `c1ccc2c(c1)CCN(C1=NCCO1)C2` it was inactive: > 10 µM; in that of `O=C(O)c1cc2ccccc2c(/N=N/c2ccccc2)c1O`, inactive: 39.6 µM; in that of `CC(C)=CCc1c(C)cc2cc3c(c(O)c2c1O)C(=O)C=C(O)C3(CC=C(C)C)C/C=C(\C)CO` (stereo unspecified), inactive: 36.1 µM.
To `O=C(/C=C/c1ccccc1Cl)c1ccc(Cl)cc1Cl` belongs inactive: 18.5 µM.
In the case of `N=C(N)NCCCC(NCc1c2ccccc2[n+]([O-])c2ccccc12)C(=O)O` (stereo unspecified) it was inactive: 40.7 µM; in that of `C[C@H]1[C@H](C)N(Cc2ccccc2)P(=O)(C(O)/C=C/c2ccccc2)N1Cc1ccccc1` (stereo partly specified), inactive: 9.71 µM; in that of `COc1ccc(CCCCl)c(C2=NCCc3cc(OC)c(OC)cc32)c1`, inactive: > 100 µM.
Consider `CCCCCCCCCCCCN1[C@H]2CCC[C@H]2C(O)[C@@H]2CCC[C@@H]21` (stereo partly specified), for which the GI50 was inactive: > 100 µM.
In the case of `O=C(NCCCCCCNC(=O)n1cc(F)c(=O)[nH]c1=O)NCCCOCCOCCOCCOCCOCCOCCOCCOCCOCCOCCOCCOCCOCCOCCOCCOCCOCCOCCOCCOCCOCCCNC(=O)C(O)C(O)C(O)C(O)CO` (stereo unspecified) it was inactive: > 63 µM.
To `O=C(O)c1ccccc1/C=C1/Nc2ccccc2C1=O` belongs inactive: > 100 µM; to `[N-]=[N+]=C1C(=O)c2ccccc2-c2ccccc21`, inactive: 31.1 µM; to `O=c1cc(N2CCN(c3cc(=O)n4ccccc4n3)CC2)oc2ccccc12`, inactive: > 100 µM.
In the case of `O=C(Nc1c(O)[nH]c(=S)[nH]c1=O)c1ccccc1` it was inactive: > 100 µM.
Take `CC(=O)c1sc2c(c1O)c(=O)n(-c1ccccc1)c(=S)n2-c1ccccc1`: the GI50 is inactive: > 100 µM.
To `COC(=O)c1c2c(cc3c1CC1(Cc4cc5c(c(C(C)=O)c4C1)CCC5)C3)CCC2` (stereo unspecified) belongs inactive: > 100 µM; to `Cc1cc(Cl)ccc1N1C(=O)C(=O)C(c2nc3ccccc3s2)C(=O)C1=O`, inactive: > 100 µM; to `C=C(Br)C(C)(Br)CCC(Br)C(C)(C)Br` (stereo unspecified), inactive: > 100 µM.
In the case of `COc1ccc(N[S+]([O-])c2ccccc2OC)cc1` (stereo unspecified) it was inactive: 10.4 µM.
In the case of `COc1ccc2nc3cc([N+](=O)[O-])ccc3c(Nc3ccc(S(=O)(=O)NC(C)=O)cc3)c2c1` it was inactive: 87.7 µM; in that of `Cn1cc(S(=O)(=O)NC(=O)Nc2ccc(Cl)cc2)c(=O)c2ccc(Cl)cc21`, inactive: 20.9 µM.
As to `Cc1cc(O)nc(NNC(C#N)c2c(O)ccc3ccccc23)n1` (stereo unspecified), the GI50 is inactive: 2.58 µM.
To `CC1=C(NC(=O)/C(=N/NC(=S)NN)C2C(=O)CC(C)(C)CC2=O)C(=O)c2ccccc2C1=O` belongs inactive: 17.7 µM.
As to `COc1ccc([C@]23CCC4(OCC(C)(C)CO4)[C@H]4CON(O[C@H](O[C@@H]5CCCCC5C(C)(C)c5ccccc5)C2)[C@@H]43)cc1OC` (stereo partly specified), the GI50 is inactive: > 100 µM.
As for `N#C/C=c1/c2ccccc2n2nc3ccccc3c12`, the GI50 was inactive: 27.2 µM.
In the case of `c1nc2cscc2c2cscc12` it was inactive: > 100 µM; in that of `COc1cc(/C=C2\[C@H]3c4c(c(OC)c(C)c(OC)c4OC)C[C@@H](C(=O)N2Cc2ccccc2)N3C(=O)OCC(C)C)c(OC)c(C)c1OC`, inactive: > 100 µM; in that of `O=C1CC(=O)NC(NN2C(=O)/C(=C/c3ccc(Cl)cc3)N=C2c2ccccc2)=N1`, inactive: 21.1 µM.
In the case of `Nc1ccc2nc3n(c(=O)c2c1)CCCCC3` it was inactive: > 100 µM.
To `O=c1cn[nH]c(=S)n1/N=C/c1c[nH]c2ccccc12` belongs inactive: > 100 µM.
Turning to `N#CC1=C(Cl)NC(Cl)=C(C#N)C1c1ccc(Cl)cc1`, the GI50 was inactive: 35.7 µM.
For `COCN1C(=O)[C@@H]2CCCN2C(=O)c2ccc([N+](=O)[O-])cc21`, the GI50 is inactive: > 100 µM.
Consider `CCN(CC)CC(C(=O)Nc1c(C)cccc1C)/C(C)=N\NC(=O)c1ccncc1` (stereo unspecified), for which the GI50 is inactive: > 100 µM.
In the case of `COc1cc2c(cc1OC)C(=O)N(c1ccc(OCCN3CCCC3)cc1)C2` it was inactive: > 100 µM; in that of `CC1OC(OC2C(OC(=O)[C@]34CCC(C)(C)C[C@H]3C3=CC[C@@H]5[C@@]6(C)CC[C@H](OC7OC(C(=O)O)C(O)C(O)C7O)C(C)(C)[C@@H]6CC[C@@]5(C)[C@]3(C)CC4)OCC(O)C2O)C(O)C(O)C1OC1OCC(O)C(O)C1O` (stereo partly specified), inactive: 19.5 µM and inactive: 36.9 µM; in that of `CCOC(=O)Oc1ccc2c(c1)c(=O)c1c(NCCN(CC)CC)ccc3nnn2c31`, inactive: 1.71 µM.
In the case of `C#C[C@]1(O)CC[C@H]2[C@@H]3CCC4=C/C(=N/OC(=O)c5cccc6cc7ccccc7nc56)CC[C@@H]4[C@H]3CC[C@@]21CC` it was inactive: > 100 µM; in that of `CC1CCC(=O)C(C(=O)CC2CC(=O)NC(=O)C2)C1` (stereo unspecified), inactive: > 100 µM.
To `Clc1ccc(OCc2nnc3n2N=C(c2ccccc2)CS3)cc1` belongs inactive: > 10 µM; to `Cc1c2c(n3c(nc4ccccc43)c1C#N)NCC2`, inactive: > 10 µM.
In the case of `Cc1c(C#N)c(N)n(C2OCC(O)C(O)C2O)c(=S)c1C#N` (stereo unspecified), the GI50 is inactive: > 100 µM.
To `NC(=O)/C=C/C(=O)O` belongs inactive: > 5000 µM; to `O=C1/C(=C/c2ccco2)NC(=S)N1CN1CCOCC1`, inactive: > 100 µM; to `CC(C)(C)c1cc(C(C)(C)C)c(P=C(Cl)Cl)c(C(C)(C)C)c1` (stereo unspecified), inactive: > 100 µM.
To `CCOC(=O)NN(C(=O)OCC)C(=C(c1ccccc1)N1CCOCC1)N(NC(=O)OCC)C(=O)OCC` belongs inactive: > 100 µM.
To `CCCCCCCC/C=C\CCCCCCCC(=O)OC[C@]1(CO)CCC(=O)O1` belongs inactive: > 100 µM.
With `CS(=O)(=O)c1nc(-c2cc3c(c(S(C)(=O)=O)n2)CCCC3)cc2c1CCCCC2`, the GI50 was inactive: > 100 µM.
Regarding `NC(=O)NC(=O)c1cccc(NC(=O)CF)c1`, the GI50 was inactive: > 100 µM.
In the case of `O=C1OC[C@H]2[C@@H]1[C@H]1O[C@@H]2C2=C(CCC2)C1=O`, the GI50 was inactive: > 100 µM.
`COc1cc2cc3c4c(cc(OC)c(OC)c4c2cc1OC)CCN3C(=O)CCC(=O)O`: the GI50 was inactive: > 100 µM.
To `O=C1CCC2(CC1CCSc1ccccc1)OCCO2` (stereo unspecified) belongs inactive: > 100 µM; to `Cc1cccc(C)c1N1C(=O)C(=O)C(c2nc3ccccc3s2)/C(=N/NC(=O)NN)C1=O` (stereo unspecified), inactive: > 100 µM.
In the case of `CCN(CC)CCOC(=O)Cc1cccc2c(=O)cc(-c3ccccc3)oc12` it was inactive: 54.6 µM.
To `CCOC(=O)c1[nH]cc(C)c1-c1c[nH]c2ccccc12` belongs inactive: 33.3 µM; to `CN(C)c1ccc(/C=C/C(=O)c2cc(C(C)(C)C)c(O)c(C(C)(C)C)c2)cc1`, inactive: 1.66 µM; to `N#C/C(=C\c1ccccc1O)C(N)=O`, inactive: 49.1 µM.
As for `Cc1cc(=O)n2c3c(c4c(cc13)c(CO)cc(=O)n4C)OC2`, the GI50 is inactive: 6.04 µM.
In the case of `CNC(=O)C1(C#N)C(c2ccccc2)C(C#N)(C(=O)NC)C1c1ccccc1` (stereo unspecified) it was inactive: > 100 µM.
In the case of `C=CCOCn1cc(C)c(=O)[nH]c1=O` it was inactive: > 100 µM; in that of `Cc1c(-c2ccccc2)c(=O)oc2ccc(Cl)cc12`, inactive: > 100 µM.
In the case of `COC(=O)C(C)NP(=O)(N1CC1)N1CC1` (stereo unspecified), the GI50 was inactive: > 100 µM.
To `Clc1sc(Cl)c2c1[C@@H](Cl)C[C@@H]2Cl` belongs inactive: > 100 µM; to `CC1CCC2[C@@H](C)COC3O[C@]4(C)CCC1C32OO4` (stereo partly specified), inactive: > 100 µM; to `COc1cc2c(c(OC)c1OC)-c1ccc(SC)c(=O)cc1[C@@H](NC(=O)c1cccc([N+](=O)[O-])c1)CC2`, active: 0.0353 µM.
To `CC(C)CCC[C@@H](C)C1CCC2[C@@H]3CCC4CC(CCC=C(c5cc(Cl)c(OC(=O)c6ccccc6)c(C(=O)O)c5)c5cc(Cl)c(OC(=O)c6ccccc6)c(C(=O)O)c5)CC[C@]4(C)C3CC[C@@]21C` (stereo partly specified) belongs inactive: 74.5 µM; to `CC1=C(N2CC2)C(=O)c2nc3n(c2C1=O)CCC3OC(=O)CCl` (stereo unspecified), active: 0.075 µM; to `O=C1c2ccccc2S(=O)(=O)c2ccccc21`, inactive: > 100 µM.
In the case of `O=c1ssc2ncccc12` it was inactive: 36.6 µM.
`Oc1cnnc2nc3ccccc3n12`: the GI50 is inactive: > 100 µM.

The values above are taken from ChEMBL document CHEMBL1201862, “PubChem BioAssay data set” (2004).
